# Publication PMC4336329 (PLoS ONE, 2015)
# Hit rate of the full screen: of about 310,000 compounds, about 2,200 (0.71%) showed an effect of 50% or more. The effect is printed as a negative number. Some of the results follow.
# Biological target: human ether-à-go-go-related gene (hERG) potassium channel (human, UniProt Q12809)
# Assay: primary screen, population patch clamp on CHO cells stably expressing hERG
# Sequence of human ether-à-go-go-related gene (hERG) potassium channel (Q12809 whole entry, looked up): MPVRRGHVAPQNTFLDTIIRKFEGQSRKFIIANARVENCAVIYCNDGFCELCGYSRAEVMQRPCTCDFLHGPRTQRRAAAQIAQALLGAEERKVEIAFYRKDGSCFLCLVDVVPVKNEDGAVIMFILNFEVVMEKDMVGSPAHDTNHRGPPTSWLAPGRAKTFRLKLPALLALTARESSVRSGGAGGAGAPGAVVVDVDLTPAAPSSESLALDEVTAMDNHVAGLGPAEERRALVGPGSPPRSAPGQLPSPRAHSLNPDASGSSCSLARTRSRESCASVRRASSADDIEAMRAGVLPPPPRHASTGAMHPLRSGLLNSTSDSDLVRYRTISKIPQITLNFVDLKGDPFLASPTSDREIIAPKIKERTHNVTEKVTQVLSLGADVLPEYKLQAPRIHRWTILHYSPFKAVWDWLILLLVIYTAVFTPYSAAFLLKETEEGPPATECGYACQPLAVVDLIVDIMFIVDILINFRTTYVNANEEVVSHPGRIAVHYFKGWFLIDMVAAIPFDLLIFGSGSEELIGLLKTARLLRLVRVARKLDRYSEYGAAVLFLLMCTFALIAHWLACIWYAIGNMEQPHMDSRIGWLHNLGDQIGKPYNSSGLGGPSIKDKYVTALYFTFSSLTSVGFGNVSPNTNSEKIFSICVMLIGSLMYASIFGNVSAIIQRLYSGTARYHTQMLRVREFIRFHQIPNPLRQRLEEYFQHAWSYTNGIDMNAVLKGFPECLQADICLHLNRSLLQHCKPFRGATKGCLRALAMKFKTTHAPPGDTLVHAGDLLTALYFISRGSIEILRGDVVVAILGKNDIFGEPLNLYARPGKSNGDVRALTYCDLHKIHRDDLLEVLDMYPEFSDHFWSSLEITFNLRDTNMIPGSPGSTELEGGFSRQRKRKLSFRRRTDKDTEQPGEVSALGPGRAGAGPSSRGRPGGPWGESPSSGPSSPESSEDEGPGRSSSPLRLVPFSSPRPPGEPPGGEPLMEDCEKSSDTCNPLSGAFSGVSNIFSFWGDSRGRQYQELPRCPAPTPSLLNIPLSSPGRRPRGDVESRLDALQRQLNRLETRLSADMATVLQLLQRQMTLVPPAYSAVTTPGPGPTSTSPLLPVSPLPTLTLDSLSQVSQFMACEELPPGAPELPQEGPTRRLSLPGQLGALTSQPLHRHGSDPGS
row,Structure (SMILES),"hERG current change (%, negative = inhibition) at 1uM [%]"
1,O=C(NCc1ccccc1Cl)C1CCN(S(=O)(=O)N2CCCC2)CC1,12.1
2,Cc1ccc(-c2nc3ccsc3c(=O)o2)cc1,16.9
3,CCc1nc2nc(C)c(NS(=O)(=O)c3ccc(CC(C)C)cc3)c(=O)n2[nH]1,12.4
4,Cc1nnc(SCC(=O)NC2CCCC2)n1C(C)C,13.2
5,CC(C)(C)c1ccc(C(=O)NCCN2CCCC2)cc1.Cl,9.03
6,O=C(OCc1ccc(F)cc1)c1cc2ccccc2cc1O,12.5
7,Cc1nc2scc(-c3cccs3)c2c(=O)n1-n1cccc1,0.336
8,CCCn1c(-c2nonc2N)nc2ccccc21,3.96
9,Cc1c(NS(=O)(=O)c2cc(C(=O)NCC3CCCO3)cc(Cl)c2Cl)c(=O)n(-c2ccccc2)n1C (stereo not drawn),11
10,Cc1cccc(CCNc2nc3ccc(C)cc3n3cnnc23)c1,15.4
11,CC(=O)N1CCCc2cc(S(=O)(=O)N3CCCC(C(=O)Nc4cc(C)ccc4C)C3)ccc21 (stereo not drawn),10.7
12,CC[n+]1c(/C=C/Nc2ccccc2)oc2ccccc21.[I-],-64.9
13,CO/N=C/c1cc([N+](=O)[O-])ccc1Sc1ccc(C)cc1,9.84
14,O=C(NCCN1CCOCC1)c1c(Cl)cccc1Cl,12.8
15,CSc1nc(NS(=O)(=O)c2ccc(F)cc2F)nn1C,8.12
16,O=C(N/N=C/c1cc([N+](=O)[O-])ccc1O)c1c[nH]c2ccccc12,11.3
17,C[C@H]1CCC/C=C/C2C[C@H](O)CC2[C@H](O)/C=C/C(=O)O1 (stereo partly drawn),13.6
18,O=C(NCc1ccccc1)c1cc(S(=O)(=O)N2CCCCC2)ccc1N1CCOCC1,6.51
19,O=C(Nc1ccc(Cl)cn1)C1CCCN(c2ncnc3c2nc2n3CCCCC2)C1 (stereo not drawn),-6.77

row,Structure (SMILES),"hERG current change (%, negative = inhibition) at 1uM [%]"
1,OC(COc1cccc2ccccc12)CN1CCN(c2ccc(Cl)cc2)CC1 (stereo not drawn),-1.91
2,Cc1nn(-c2ccccc2)c(N2CCCC2)c1/C=N/NC(=O)c1cc(-c2ccccn2)nc2ccccc12,4.29
3,Cc1cc(NC(=O)CSc2nnc(-c3ccncc3)n2Cc2ccccc2)n(-c2ccccc2)n1,-2.26
4,COC(=O)c1ccc(C(=O)N2CCCC(N3CCN(c4ccccc4)CC3)C2)nc1 (stereo not drawn),1.6
5,CC(Oc1ccccc1)C(=O)N1CCCc2ccccc21 (stereo not drawn),9.2
6,CC(=O)N1N=C2C3CCN(CC3)C2C1c1ccc(F)cc1 (stereo not drawn),2.27
7,N#C/C(=C\c1ccc(OCC(N)=O)cc1)C(=O)NC1CC1,4.81
8,COc1ccc(CCNC(=O)COc2ccc3c(C)cc(=O)oc3c2)cc1OC,10
9,Cn1c(=N)c(S(=O)(=O)c2ccc(F)cc2)cc2c(=O)n3ccccc3nc21,3.69
10,O=C(CCc1c[nH]c2ccccc12)NCCc1ccccc1,15.5
11,Cn1nnnc1SCC(=O)Nc1ccccc1C(=O)NC1CC1,7.22
12,O=C(NCC(F)(F)F)Nc1ncccn1,15.6
13,Cc1cc(S(=O)(=O)N2CCCc3ccccc32)ccc1-n1cnnn1,11.6
14,O=C(NCc1ccc(F)cc1)N1CCN(S(=O)(=O)c2ccccc2F)CC1,13.7
15,Cc1cccc(N2CCN(C(=O)c3cc(=O)[nH]c4ccccc34)CC2)c1C,3.8
16,O=C(NC1CCN(Cc2ccccc2)CC1)c1ccccc1,2.84
17,COC(=O)/C(=C/c1ccccc1)NC(=O)c1ccco1,13.9
18,COc1ccc(CCc2nnc(CCC(=O)NCc3cnn(-c4ccccc4C)c3)o2)cc1,5.01
19,CCOc1ccc(-n2cnc3sc(C)c(C)c3c2=O)cc1,20.6

row,Structure (SMILES),"hERG current change (%, negative = inhibition) at 1uM [%]"
1,Cc1cc(SC(C)C(=O)NCC(=O)Nc2ccc(F)c(F)c2F)nc2ccccc12 (stereo not drawn),2.08
2,Cc1c(C)c2ccc(OCC(=O)N3CCOCC3)c(C)c2oc1=O,2.46
3,CCc1ccc(CNC(=O)C2CCC(=O)N(CCc3ccc(Cl)cc3)C2)nc1 (stereo not drawn),-44.7
4,COc1c(-c2ccc([N+](=O)[O-])cc2[N+](=O)[O-])c(=O)n(C)c(=O)n1C,13.6
5,CC1CCN(C(=O)CSc2nnc(Cc3ccccc3)o2)CC1,1.4
6,COc1cccc(C2/C(=C(/O)c3ccc(C)cc3)C(=O)C(=O)N2Cc2ccco2)c1 (stereo not drawn),1.53
7,O=C(COc1ccccc1)N=C1SC2CS(=O)(=O)CC2N1c1ccc(F)cc1F (stereo not drawn),8
8,CCOC(=O)CSc1ncc(-c2ccccc2)nn1,9.06
9,CC(=O)N1CCN(S(=O)(=O)c2c(C)n(C)c(=O)n(C)c2=O)CC1,14.1
10,CC1=C(C(=O)Nc2cccnc2)C(c2ccccn2)n2nnnc2N1 (stereo not drawn),1.76
11,Cc1onc(-c2ccccc2Cl)c1C(=O)NC(=S)Nc1ccccc1F,12
12,Clc1ccc(C(c2ccccc2)N2CCN(c3ccccn3)CC2)cc1 (stereo not drawn),4.25
13,CCOc1ccc(NC(=O)c2cc3n(n2)C(C(F)(F)F)CC(c2ccco2)N3)cc1 (stereo not drawn),18.1
14,NS(=O)(=O)c1ccc(CNC(=O)CCS(=O)(=O)Cc2ccccc2)cc1,10.7
15,COc1ccccc1Nc1ncc(C(C)=O)c(C)n1,11.3
16,Cc1ccc(O)c(/C=N/NC(=O)c2[nH]ncc2Br)c1,14.6
17,CCOC(=O)C(C)Sc1nnc(Cn2c(=O)sc3ccccc32)n1-c1ccccc1 (stereo not drawn),4.98
18,COc1ccc(C2Nc3ccccc3C(=O)N2NS(=O)(=O)c2ccc(C)cc2)cc1 (stereo not drawn),12.5
19,Br.Cn1c(=N)n(CC(=O)O)c2ccccc21,1.92
